# Results reported in the supplement of paper PMC12645437, “Orthogonal IMiD-Degron Pairs Induce Selective Protein Degradation in Cells” (ACS Chemical Biology, 2025).
# The other results are listed elsewhere or left out.
# Target: no compound (DMSO)
# Assay: log2 fold change of degron read counts, EGFP-low vs EGFP+ sorted cells; higher = lower degron-EGFP level without compound (poor expression or instability)
# Settings: compound: DMSO control; 18 h
# 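Also: jurkat cells carrying a lentiviral library of mutant zinc finger degrons fused to EGFP plus mCherry, mCherry+ cells FACS sorted, degron abundance counted by next-generation sequencing.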
row,Sequence,log2 fold change of degron read counts
1,FMCEICGAGFTQKGNLLRHIKL,-1.04
2,FTCEICGHSFTQKGNLLRHIKL,-2.51
3,FTCEVCGAYFTQKGNLLRHIKL,-0.506
4,FDCNQCGHHFTQKGNLLRHIKL,0.897
5,LTCNQCGFHCTQKGNLLRHIKL,0.259
6,FSCEICGREFTQKGNLLRHIKL,-1.81
7,FICNQCGARFTQKGNLLRHIKL,-0.631
8,LHCEICGFFCTQKGNLLRHIKL,1.09
9,LVCEICGFPCTQKGNLLRHIKL,0.307
10,FSCPICGAWFTQKGNLLRHIKL,0.283
11,FMCEVCGAIFTQKGNLLRHIKL,0.0367
12,FLCPVCGATFTQKGNLLRHIKL,-0.321
13,FGCNICGACFTQKGNLLRHIKL,0.119
14,FLCNQCGHKFTQKGNLLRHIKL,0.331
15,FTCPICGAAFTQKGNLLRHIKL,-0.264
16,FDCSVCGHQFTQKGNLLRHIKL,-2.08

row,Sequence,log2 fold change of degron read counts
1,FKCNQCGAGFTQKGNLLRHIKL,-0.475
2,FNCPVCGAIFTQKGNLLRHIKL,0.14
3,FMCEICGHDFTQKGNLLRHIKL,-1.77
4,LECEICGFFCTQKGNLLRHIKL,1.44
5,FCCEICGHKFTQKGNLLRHIKL,-2.36
6,FWCEICGHFFTQKGNLLRHIKL,1.12
7,FFCNVCGAGFTQKGNLLRHIKL,-0.489
8,FSCNQCGAEFTQKGNLLRHIKL,-1.62
9,FACPVCGAVFTQKGNLLRHIKL,-0.172
10,FDCEICGACFTQKGNLLRHIKL,-1.82
11,FWCNQCGRKFTQKGNLLRHIKL,0.604
12,LACEICGFMCTQKGNLLRHIKL,0.353
13,FDCNQCGHWFTQKGNLLRHIKL,1.98
14,LWCNQCGFACTQKGNLLRHIKL,1.97
15,FECEVCGACFTQKGNLLRHIKL,-1.98
16,FVCEQCGAHFTQKGNLLRHIKL,-1.6
